# According to PubChem BioAssay AID588591 (National Center for Advancing Translational Sciences (NCATS), 2011):
# Out of some 390,000 compounds screened, about 4,700 (1.2%) were called active. This list was built around the results that the source calls inconclusive (neither active nor inactive); the mix of calls is not that of the screen. Calls follow the shape of the dose curve; as a rule, active = well fitted inhibition curve with a large enough effect; inconclusive = small, poorly fitted or top-dose-only effect, or another doubt; inactive = no such curve, though single readings can be large or run the other way. Potencies of inconclusive entries are doubtful fits and often do not repeat.
# Molecular target: DNA polymerase eta (Homo sapiens) (UniProt Q9Y253)
# Assay: qHTS for Inhibitors of Polymerase Eta
# Conditions: recombinant Pol eta, fluorescent DNA replication assay; series mostly up to 114 µM
# How it was run: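 Fluorescent replication assay: 50 nM final substrate added after a 15 min room-temperature compound preincubation with 10 nM enzyme. Signal taken at 0 min and again at 10 min.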
# Potency is read from the fitted curve at half-maximal effect; tags tell the direction and shape of the fitted curve.
# Sequence of UniProt Q9Y253 (Q9Y253 whole entry, looked up): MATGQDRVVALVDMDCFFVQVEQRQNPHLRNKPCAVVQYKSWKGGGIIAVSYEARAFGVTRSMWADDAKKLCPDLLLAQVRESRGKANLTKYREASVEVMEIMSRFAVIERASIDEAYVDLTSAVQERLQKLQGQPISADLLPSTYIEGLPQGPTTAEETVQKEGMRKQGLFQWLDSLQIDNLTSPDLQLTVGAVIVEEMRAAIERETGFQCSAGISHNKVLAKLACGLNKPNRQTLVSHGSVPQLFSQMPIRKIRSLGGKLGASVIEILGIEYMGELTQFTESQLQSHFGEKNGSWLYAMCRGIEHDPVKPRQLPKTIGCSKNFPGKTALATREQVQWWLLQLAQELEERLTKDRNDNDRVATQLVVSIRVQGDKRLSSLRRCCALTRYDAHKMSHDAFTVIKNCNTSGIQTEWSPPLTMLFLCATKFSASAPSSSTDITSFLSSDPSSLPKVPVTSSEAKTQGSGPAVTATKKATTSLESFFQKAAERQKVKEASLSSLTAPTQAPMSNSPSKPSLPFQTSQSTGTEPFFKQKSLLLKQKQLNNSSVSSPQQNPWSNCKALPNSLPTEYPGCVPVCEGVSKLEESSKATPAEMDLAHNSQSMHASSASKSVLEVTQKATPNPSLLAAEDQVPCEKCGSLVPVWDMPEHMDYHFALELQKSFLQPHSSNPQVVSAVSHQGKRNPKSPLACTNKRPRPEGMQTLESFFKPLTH
row,SMILES,Potency
1,O=S(=O)(c1ccc(Cl)cc1)N1CCCC(C(F)(F)F)C1 (stereo not given),"inconclusive: 89.1 µM [inhibitor, partial curve, poor fit]"
2,CN(C)c1ccc(C=c2c3ccccc3n3c2c2c([n+]3C)CCCC2)cc1,"inconclusive: 12.6 µM [inhibitor, partial curve, poor fit]"
3,CCOC(=O)c1ccc(NC(=O)CN(C)S(=O)(=O)c2ccc(Br)s2)cc1,"inconclusive: 89.1 µM [inhibitor, partial curve, poor fit]"
4,Cc1ccc(CNC(=O)Cn2c(-c3cccs3)cc3cc(Cl)ccc32)cc1,inactive
5,O=C(NCc1ccco1)c1sc2ccccc2c1Cl,"inconclusive: 22.4 µM [inhibitor, partial curve, poor fit]"
6,O=C(O)CC/C(=C\c1ccc(N2CCOCC2)c([N+](=O)[O-])c1)c1nc2ccccc2s1,inactive
7,CS(=O)(=O)N1CCC(C(=O)NCc2ccc(Cl)cc2)CC1,"inconclusive: 89.1 µM [inhibitor, partial curve, poor fit]"
8,Nc1c(C(=O)NCC2CCCO2)sc2nc3c(c(-c4ccco4)c12)CC/C3=C\c1ccco1 (stereo not given),active: 0.708 µM
9,COc1cc(NCCCCCCN)c2ncccc2c1OC,active: 44.7 µM
10,COc1ccccc1Nc1ccc2c(O)cc(S(=O)(=O)O)cc2c1,active: 2.24 µM
11,COc1ccc(NC(=O)c2ccc3c(c2)C(=O)N(Cc2ccncc2)C3=O)cc1S(N)(=O)=O,"inconclusive: 50.1 µM [inhibitor, partial curve]"
12,Cc1ccc(C(=O)OCC(=O)NCc2ccccc2)s1,inactive
13,CCCCOc1ccc(C(=O)Nc2ccc3c(c2)N(C(C)=O)CCC3)cc1,"inconclusive: 79.4 µM [inhibitor, single point]"
14,Cc1ccc(C)c(S(=O)(=O)n2nc(C)c(S(=O)(=O)N3CCCCCC3)c2C)c1,inactive
15,O=C(Cn1c(COc2ccccc2)nc2ccccc21)Nc1cc(Cl)cc(Cl)c1,"inconclusive: 39.8 µM [inhibitor, single point]"
16,Cc1ccc(C)c(S(=O)(=O)Nc2ccc3oc(C)c(C(=O)O)c3c2)c1,active: 10 µM
17,COc1ccc(N=C2C=CC(=O)O2)cc1,"inconclusive: 14.1 µM [inhibitor, full curve, poor fit]"
18,COc1ccc(/C=C2\C(=O)NC(=O)c3ccccc32)cc1OC,active: 20 µM
19,N/C(=N\NC(=O)c1cccc(F)c1)c1cc2ccccc2oc1=O,"inconclusive: 79.4 µM [inhibitor, partial curve]"
20,CCCc1nc2ccccc2c(=O)n1/N=C/c1ccc(O)c(O)c1,"inconclusive: 17.8 µM [inhibitor, partial curve, poor fit]"
21,COC(=O)c1ccc(-c2ccc(C(c3c(C)[nH][nH]c3=O)c3c(C)[nH][nH]c3=O)o2)cc1,active: 25.1 µM
22,CC1(C)C(=O)Nc2ccccc2N1C(=O)COc1ccc(S(=O)(=O)N2CCOCC2)cc1Cl,"inconclusive: 11.2 µM [inhibitor, full curve, poor fit]"
23,Cc1ccc(COC(=O)Cc2coc3cc(O)ccc23)cc1,inactive

row,SMILES,Potency
1,Nc1ccc2c(c1)C(=O)C(=O)c1ccccc1-2,active: 0.794 µM
2,CN(C)c1ccc(N=c2sc3ccccc3n2C)cc1,inactive
3,CCC1CCc2sc(C(=O)O)cc2C1 (stereo not given),"inconclusive: 15.8 µM [inhibitor, partial curve, poor fit]"
4,Cc1onc(-c2ccccc2)c1C(=O)Nc1sc2c(c1C#N)CCC2,active: 28.2 µM
5,N#Cc1c(=O)c2nc(NCCCO)ncc2n2c(=O)c3ccccc3[nH]c12,active: 39.8 µM
6,CC1=C(C(=O)OC(C)C)C(c2cccc([N+](=O)[O-])c2)n2c(cc(=O)[nH]c2=S)N1 (stereo not given),inactive
7,CNc1ccccc(C(=O)/C=C/c2ccccc2OC)c1=O,active: 14.1 µM
8,CC(C)N(c1ccccc1)c1ccc(NC(=O)COC(=O)CCN2C(=O)c3cccc([N+](=O)[O-])c3C2=O)cc1,"inconclusive: 50.1 µM [inhibitor, partial curve, poor fit]"
9,COc1ccc2c(c1)c(=O)oc1cc(OCC(=O)N3CCc4ccccc4C3)ccc12,active: 89.1 µM
10,CC1(C)c2[nH]c3ccccc3c2C[C@@H]2C(=O)N(Cc3ccccc3F)C(=O)N21,inactive
11,COc1cccc(OCc2nnc(SCC(=O)NCc3ccco3)n2CCc2ccccc2)c1,active: 14.1 µM
12,NS(=O)(=O)c1ccc(CCNC(=O)c2cc(-c3ccco3)nc3ccccc23)cc1,"inconclusive: 50.1 µM [inhibitor, partial curve]"
13,Nc1ccc(-c2cnc(N)c(C(=O)c3cccnc3)n2)cn1,"inconclusive: 17.8 µM [inhibitor, full curve, poor fit]"
14,Cc1nn(-c2ccccn2)c2nc(-c3cccs3)cc(C(=O)NCc3ccco3)c12,"inconclusive: 25.1 µM [inhibitor, partial curve]"
15,CCOC(=O)C1=C(C)N=c2s/c(=C/c3ccc(OCC(=O)O)cc3)c(=O)n2C1c1ccc(OC)cc1OC (stereo not given),active: 28.2 µM
16,COc1ccc(-c2nc(N)nc(C)c2Oc2ccccc2Br)c(O)c1,"inconclusive: 14.1 µM [inhibitor, full curve, poor fit]"
17,O=C(/C=C/Nc1ccccc1)c1ccc(Oc2ncccn2)cc1,"inconclusive: 10 µM [inhibitor, full curve, poor fit]"
18,Cc1ccc([N+](=O)[O-])cc1S(=O)(=O)Nc1ccc(C(=O)N2CCN(C(=O)c3ccco3)CC2)cc1,active: 22.4 µM
19,COc1ccc(NC(=O)CSCC(=O)Nc2sccc2C#N)cc1,"inconclusive: 31.6 µM [inhibitor, partial curve, poor fit]"
20,COC(=O)c1[nH]c2cc(OC)c(OC)cc2c1/C=N/Nc1ccccc1,"inconclusive: 31.6 µM [inhibitor, single point]"
21,COc1ccc(/C=C2\SC(N)=NC2=O)cc1Br,"inconclusive: 25.1 µM [inhibitor, full curve, poor fit]"
22,CC(=O)Nc1ccc(S(=O)(=O)N(C)Cc2ccccc2)cc1,inactive
